The results in this text go back to publication PMC4242493.

Some of the results follow. The list includes weakly bound sequences.

For this assay, the target named is MaxL homodimer (UniProt P61244). In words: universal protein-binding microarray (PBM). The settings on record: PBS-based mixture, 10 nM His-tagged protein dimer, 2% milk, 200 ng/uL BSA, 50 ng/uL salmon testes DNA, 0.02% TX-100; detection with Alexa 488 anti-His …; high values mean tight binding; most listed sequences are background and not binding sites; double strand, one strand shown.
Sequence of UniProt P61244 (P61244 whole entry): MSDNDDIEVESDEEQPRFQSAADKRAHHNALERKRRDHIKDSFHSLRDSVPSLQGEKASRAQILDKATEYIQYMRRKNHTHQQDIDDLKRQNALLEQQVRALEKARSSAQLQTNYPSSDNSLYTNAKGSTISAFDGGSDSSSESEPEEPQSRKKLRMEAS
Consider CGGTGACA, for which the binding signal (normalized occupancy) is 0.0752.
Turning to TACGAGTA, the binding signal (normalized occupancy) amounted to 0.072.
With AGGTCCGG the figure was 0.0717; with AGCTAATC, 0.0706.
CCCGCTCG: the binding signal (normalized occupancy) was found to be 0.0756.
ATACCTGG: the binding signal (normalized occupancy) was 0.0794.
As for GCACAATA, the figure is 0.08.
Regarding CCCCGTAG, the binding signal (normalized occupancy) was found to be 0.0708.
Take CCGCGGGC: the binding signal (normalized occupancy) worked out at 0.0638.
In the case of CAGCGACA, the binding signal (normalized occupancy) worked out at 0.0785.
As to CACACAGG, the binding signal (normalized occupancy) was 0.0787.
As for CTTAATCC, the figure is 0.0752; as for TTATGAAA, 0.0765.
With ACTGCACC the figure was 0.0739.
As for AGCGCCAT, the binding signal (normalized occupancy) was 0.0704.
In the case of AGATCGTC, the binding signal (normalized occupancy) amounted to 0.073.
Take ATTTTGGC: the binding signal (normalized occupancy) was 0.0796.
Take AAGAGCTG: the binding signal (normalized occupancy) was determined as 0.0717.
Turning to CCCTGGTC, the binding signal (normalized occupancy) worked out at 0.0713.
Take GCATAACC: the binding signal (normalized occupancy) came out at 0.0776.
For the sequence AGAGACAG, the binding signal (normalized occupancy) was 0.0718.
CATTGAGA: the binding signal (normalized occupancy) worked out at 0.0728.
With AGATTGTA, the binding signal (normalized occupancy) was found to be 0.0752.
With GGAGCAGA the figure was 0.0682; with AACGCATG, 0.121; with ACGAAGTC, 0.071.
Turning to ATAAGGCG, the binding signal (normalized occupancy) turned out to be 0.0737.
As for TACTACGA, the figure is 0.0764; as for TACGCGGA, 0.0723.
With GGGTCACC, the binding signal (normalized occupancy) was 0.0752.
As for AAAAGCGG, the figure is 0.0667; as for CGAAGACG, 0.0664.
As to CTTTGGAA, the binding signal (normalized occupancy) worked out at 0.0702.
Turning to AAATCCCG, the binding signal (normalized occupancy) was determined as 0.0742.
Take AGGGTAAG: the binding signal (normalized occupancy) was 0.0793.
With ACCGATGA, the binding signal (normalized occupancy) amounted to 0.0782.
With GGTTAGGA the figure was 0.0774; with GGCTCTGA, 0.076; with AGCGAAGC, 0.0701.
AGAGCCCC: the binding signal (normalized occupancy) was found to be 0.0718.
With GAGGACCC the figure was 0.0739.
As for CATCTGTC, the binding signal (normalized occupancy) worked out at 0.0856.
For GGGATGAC, the binding signal (normalized occupancy) worked out at 0.077.
As to ATTCGACA, the binding signal (normalized occupancy) stood at 0.0756.
Consider CCGGGAAG, for which the binding signal (normalized occupancy) turned out to be 0.0675.
For the sequence AGTCTGAT, the binding signal (normalized occupancy) came to 0.0755.
With ACGAAACA, the binding signal (normalized occupancy) came out at 0.0742.
Turning to TAGACGAA, the binding signal (normalized occupancy) was determined as 0.073.
On to TACGAAAA, for which the binding signal (normalized occupancy) was 0.0738.
For the sequence CGGATCAC, the binding signal (normalized occupancy) amounted to 0.0753.
ATGCTGCG: the binding signal (normalized occupancy) amounted to 0.0796.
For AAAAGCCT, the binding signal (normalized occupancy) was 0.0691.
As for AAGGAGGT, the figure is 0.074.
For the sequence TGCCGAAA, the binding signal (normalized occupancy) turned out to be 0.0752.
As for CCGCCTAC, the figure is 0.0701.
CGTTCGGA: the binding signal (normalized occupancy) was 0.0719.
For the sequence AACAATGT, the binding signal (normalized occupancy) was found to be 0.078.
With CGTTGTAG the figure was 0.0747; with CGCTGCCG, 0.0741; with ACCAGTGG, 0.0717.
Take ATCAAGAC: the binding signal (normalized occupancy) was found to be 0.0759.
As for CAAGTCAC, the figure is 0.0795.
As for CTATAGGC, the binding signal (normalized occupancy) is 0.0725.
Regarding ATGGCCTA, the binding signal (normalized occupancy) amounted to 0.0782.
On to GGAGGGAA, for which the binding signal (normalized occupancy) was found to be 0.0728.
As to ATAATCAA, the binding signal (normalized occupancy) is 0.0771.
Consider ACTCTTCA, for which the binding signal (normalized occupancy) came out at 0.0747.
For the sequence AGGTATAC, the binding signal (normalized occupancy) worked out at 0.0784.
For CCAGGGGC, the binding signal (normalized occupancy) came out at 0.0697.
In the case of GACAAAGA, the binding signal (normalized occupancy) came out at 0.0792.
Turning to GCTTGTCC, the binding signal (normalized occupancy) was determined as 0.0786.
With AGTCTCAC the figure was 0.075; with AATTTACC, 0.0797; with GTCGAATA, 0.0747.
Turning to ACTAATGC, the binding signal (normalized occupancy) stood at 0.0717.
In the case of ATGATTAA, the binding signal (normalized occupancy) was found to be 0.078.
Consider AATAGTAA, for which the binding signal (normalized occupancy) was determined as 0.0776.
On to ACATATGC, for which the binding signal (normalized occupancy) worked out at 0.0976.
AGTAGGAG: the binding signal (normalized occupancy) is 0.0726.
Turning to CACACATC, the binding signal (normalized occupancy) was 0.0888.
CCCTTACG: the binding signal (normalized occupancy) amounted to 0.0713.
On to CACCGACG, for which the binding signal (normalized occupancy) was 0.0725.
As to GAACACTC, the binding signal (normalized occupancy) was found to be 0.0727.
As to TAACTACA, the binding signal (normalized occupancy) worked out at 0.0782.
Take CCTGTTAG: the binding signal (normalized occupancy) turned out to be 0.0795.
With ATGCAGTA the figure was 0.0766.
On to CAATTGTA, for which the binding signal (normalized occupancy) is 0.0769.
As to AGGGGGTA, the binding signal (normalized occupancy) came to 0.0831.
Take ACTCCCCA: the binding signal (normalized occupancy) came to 0.0815.
As for CGCTACAA, the figure is 0.0765; as for CCGTATCC, 0.0707.
As to GACCAAAC, the binding signal (normalized occupancy) worked out at 0.0713.
In the case of AAAGTGCT, the binding signal (normalized occupancy) came to 0.072.
With AGCCATCC the figure was 0.0723; with CCGCAGGC, 0.0645.
For CCTCCAGG, the binding signal (normalized occupancy) came to 0.0762.
As to GTATGGGA, the binding signal (normalized occupancy) was 0.0804.
In the case of TGGGGCAA, the binding signal (normalized occupancy) was 0.0763.
Take CAAACGGC: the binding signal (normalized occupancy) came to 0.066.
Regarding AAAACTCC, the binding signal (normalized occupancy) was found to be 0.0714.
CGCATGGA: the binding signal (normalized occupancy) stood at 0.106.
Regarding AATCATAA, the binding signal (normalized occupancy) worked out at 0.0796.
As to CAGTAGAA, the binding signal (normalized occupancy) was found to be 0.0771.
Take TACGTACA: the binding signal (normalized occupancy) is 0.0764.
AGGTACAA: the binding signal (normalized occupancy) worked out at 0.0777.
With GAGACCAC, the binding signal (normalized occupancy) was 0.0836.
As for ATTGGAAC, the figure is 0.076.
In the case of GAACTATC, the binding signal (normalized occupancy) was found to be 0.0768.
In the case of CATAACCA, the binding signal (normalized occupancy) is 0.0811.
On to CTGTAGCC, for which the binding signal (normalized occupancy) amounted to 0.0712.
For the sequence ATGAACTA, the binding signal (normalized occupancy) amounted to 0.0803.
Regarding CCGTGAGA, the binding signal (normalized occupancy) was 0.0755.
CAGGCCTA: the binding signal (normalized occupancy) came out at 0.0722.
Take AGGCGTCC: the binding signal (normalized occupancy) was found to be 0.0714.
As to ATTAGACA, the binding signal (normalized occupancy) amounted to 0.0773.
Consider ATCGAATA, for which the binding signal (normalized occupancy) came out at 0.0828.
On to CAAGATTG, for which the binding signal (normalized occupancy) came out at 0.0753.
With GGCCACAA, the binding signal (normalized occupancy) came to 0.0751.
As for AACCACGC, the figure is 0.0983.
Consider CAACGAGG, for which the binding signal (normalized occupancy) was 0.0883.
AGATACCC: the binding signal (normalized occupancy) was determined as 0.085.
Take CGAAATCG: the binding signal (normalized occupancy) came to 0.0731.
Consider CACCGGTC, for which the binding signal (normalized occupancy) came to 0.0698.
AATCAGTC: the binding signal (normalized occupancy) came out at 0.075.
Consider GGCTATAA, for which the binding signal (normalized occupancy) amounted to 0.0808.
As for AGCATGAA, the figure is 0.0874; as for CCCAATCA, 0.0801; as for CAGTCCGG, 0.0701.
As for ACTGTCAT, the figure is 0.0825; as for AGCTGACT, 0.0677; as for CGACATAG, 0.0786.
With CCCATTCA, the binding signal (normalized occupancy) turned out to be 0.0811.
On to CCAAGAGG, for which the binding signal (normalized occupancy) was found to be 0.0701.
Take CTCAACAC: the binding signal (normalized occupancy) was found to be 0.0811.
As for AAACCAAC, the figure is 0.0716; as for GAGGTCAA, 0.0778; as for AACACGAG, 0.11.
With AGAGCAGA, the binding signal (normalized occupancy) was 0.0696.
For the sequence GTTGCTGA, the binding signal (normalized occupancy) was found to be 0.0757.
Take TCAACGAA: the binding signal (normalized occupancy) worked out at 0.0702.
TCCGTACA: the binding signal (normalized occupancy) is 0.0742.
As to AACTGTAT, the binding signal (normalized occupancy) came out at 0.0744.
In the case of CGGTTCCC, the binding signal (normalized occupancy) turned out to be 0.0697.
Regarding ACACTGCA, the binding signal (normalized occupancy) amounted to 0.0769.
As for CACGTCAG, the figure is 0.0836; as for GTCGTTGA, 0.0714.
In the case of ATCGTAAG, the binding signal (normalized occupancy) came to 0.0756.
In the case of AGTGATTG, the binding signal (normalized occupancy) was 0.0741.
In the case of CTAAAGAC, the binding signal (normalized occupancy) worked out at 0.0725.
As for AAATTTAT, the binding signal (normalized occupancy) was 0.0783.
ACGAGCCT: the binding signal (normalized occupancy) turned out to be 0.0744.
As for CGTCACGC, the binding signal (normalized occupancy) was found to be 0.0948.
Turning to ACAACATC, the binding signal (normalized occupancy) stood at 0.0778.
For CGTTCAAC, the binding signal (normalized occupancy) worked out at 0.0743.
Turning to ATTTTAGG, the binding signal (normalized occupancy) amounted to 0.0733.
For ACTGTGCG, the binding signal (normalized occupancy) was determined as 0.0774.
Take ACAGTGGT: the binding signal (normalized occupancy) was 0.0722.
Regarding CAAGGCTA, the binding signal (normalized occupancy) was 0.0744.
As for AGCATGAC, the figure is 0.0962; as for CGTAGGTC, 0.0714.
As for AGATAACA, the figure is 0.0751.
With GATACTTA, the binding signal (normalized occupancy) was determined as 0.0759.
ATGGGAAG: the binding signal (normalized occupancy) amounted to 0.0823.
CCCAGAAA: the binding signal (normalized occupancy) was determined as 0.0773.
As to CTTACCTC, the binding signal (normalized occupancy) was found to be 0.0706.
As to AATGCTAT, the binding signal (normalized occupancy) amounted to 0.0758.
Turning to AGGCTGGG, the binding signal (normalized occupancy) was 0.073.
As to AAGAGCAT, the binding signal (normalized occupancy) was 0.0806.
As for GGGATGTA, the binding signal (normalized occupancy) worked out at 0.0814.
Turning to AACCGCGT, the binding signal (normalized occupancy) stood at 0.0785.
Turning to ACTCTGAA, the binding signal (normalized occupancy) is 0.0737.
As for GCAGTCCC, the figure is 0.0748.
